Measurements taken from PubChem BioAssay AID2546 (National Center for Advancing Translational Sciences (NCATS), 2010).
About 11,000 (3.5%) of roughly 310,000 compounds were called active. This list was built around the results that the source calls inconclusive (neither active nor inactive); the mix of calls is not that of the screen. The call rests on the fitted dose curve; in most records, active means well fitted inhibition curve with a large enough effect; inconclusive means small, poorly fitted or top-dose-only effect, or effect the other way; inactive means flat fitted curve, though single readings scatter. No potency is given beside an inconclusive call; the fits are too rough.
On the % scale 0 is the no-effect control and ±100 the full control effect; potency means the concentration at half of the fitted maximal effect; tags describe the fitted curve by direction and shape.

Test: VP16 counterscreen qHTS for inhibitors of ROR gamma transcriptional activity;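 further: Gal4-VP16 expression switched on by copper sulfate through the metallothionein promoter; nearly all actives have a fitted effect of over 50% in size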
Settings: Drosophila S2 Gal4-VP16 UAS-luciferase, luminescence, 20 h; activity, negative = inhibition: at 53.6 µM (top of the series)
For `O=C(/C=C/c1ccc(Cl)c([N+](=O)[O-])c1)c1ccc(O)cc1`, the Potency was inconclusive [inhibitor, single point]. With `Nc1ncnc(Sc2ccc(Cl)cc2)c1[N+](=O)[O-]` the “activity, negative = inhibition” value was inactive: 6.37%. In the case of `Cc1onc(-c2c(Cl)cccc2Cl)c1C(N)=S`, the Potency is reported as inconclusive [inhibitor, partial curve]. In the case of `O=C(Nc1cnc2ccccn2c1=O)c1ccc(Cl)cc1Cl`, the Potency is reported as inconclusive [inhibitor, full curve]. For `O=C(NNS(=O)(=O)c1ccc(CCCl)cc1)C(O)(c1ccccc1)c1ccccc1`, the Potency was inconclusive [activator, single point]. In the case of `Cc1ccc(C(=O)Nc2ccon2)cc1S(=O)(=O)N1CCOCC1`, the Potency is reported as inconclusive [inhibitor, single point]. For `Cc1ccccc1NC(=O)Oc1cccc(OC(=O)c2ccccc2)c1`, the “activity, negative = inhibition” value was inactive: 2.43%. In the case of `OC1(c2cccnc2)CCN(Cc2nnnn2Cc2ccccc2)CC1`, the activity, negative = inhibition is reported as inactive: -0.552% [at 10 µM]. With `Cc1csc2c(N3CCN(C(=O)c4ccc(C(C)(C)C)cc4)CC3)ncnc12` the Potency was inconclusive [inhibitor, single point]. With `O=C(Nc1ccn(Cc2ccc(Cl)cc2)n1)c1ccc2c(c1)OCO2` the “activity, negative = inhibition” value was inactive: 4.25%. With `C=CCNC(=S)N/N=C(\C)c1cccc(OC)c1` the Potency was active: 0.891 µM. In the case of `COC(=O)Cn1c(=NC(=O)CCS(=O)(=O)c2ccccc2)sc2c(OC)ccc(OC)c21`, the “activity, negative = inhibition” value is reported as inactive: -0.94%. For `CCCCC1=NN(C(=O)c2cocc2C)C(O)(C(F)(F)F)C1` (stereo not given), the Potency was inconclusive [inhibitor, partial curve]. With `CC(=O)N1CC(=O)N=C1SCC(=O)Nc1nc(-c2ccccc2)c(-c2ccccc2)s1` the Potency was active: 7.94 µM. For `CC(C)c1ccc(OCc2ccc(C(=O)N3CCN(c4ccccn4)CC3)cc2)cc1`, the Potency was inconclusive [inhibitor, single point]. For `CC(=O)Nc1cccc(C(=O)Nc2ccccc2N2CCOCC2)c1`, the “activity, negative = inhibition” value was inactive: -1.17%. For `CCCC(=O)N(c1ccc2oc(=O)sc2c1)S(=O)(=O)c1cccs1`, the “activity, negative = inhibition” value was inactive: -14.3%. In the case of `COc1cc(C(=O)N/N=C/c2sc(=O)n(-c3ccccc3)c2Cl)cc(OC)c1OC`, the Potency is reported as inconclusive [activator, single point]. For `COc1ccccc1N1CCN(C2CCCN(C(=O)c3cccc(-c4ccco4)c3)C2)CC1` (stereo not given), the “activity, negative = inhibition” value was inactive: -15.7%. With `CCCCOC(=O)c1ccc(NC(=S)NC(=O)c2ccco2)cc1` the Potency was inconclusive [inhibitor, single point]. In the case of `N#Cc1cc(C#N)c(N2CCN(c3ccccn3)CC2)nc1N`, the Potency is reported as inconclusive [inhibitor, single point]. With `O=S(=O)(c1ccccc1)c1cnc(-c2ccccc2)nc1N1CCCC1` the “activity, negative = inhibition” value was inactive: 21.6%. For `Nc1ncccc1OCc1ccc(Cl)c(Cl)c1`, the Potency was inconclusive [inhibitor, single point]. With `CC1CCN(C(=O)CSc2nc(N)c3c4c(sc3n2)CN(C)CC4)CC1` the “activity, negative = inhibition” value was inactive: -3.14%. With `O=C1CC(N2CCC(O)(c3ccc(Br)cc3)CC2)C(=O)N1c1ccc(Cl)cc1` (stereo not given) the Potency was inconclusive [inhibitor, single point]. For `CC(C)(C)c1ccc(/C=C2\SC(=O)N(CCNC(=O)c3cccc(S(=O)(=O)N4CCOCC4)c3)C2=O)cc1`, the Potency was active: 2 µM. With `CC(SCc1ccccc1)C(=O)N/N=C/c1cccs1` (stereo not given) the Potency was inconclusive [inhibitor, single point]. In the case of `CC(C)c1cc(C(=O)NNC(=S)NC2CCCCC2)cs1`, the Potency is reported as inconclusive [inhibitor, single point]. For `Cc1cc(C)cc(NC(=O)c2ccc([N+](=O)[O-])o2)c1`, the Potency was inconclusive [inhibitor, single point]. With `O=C(Nc1ccc(Oc2ccc3ccccc3c2)cc1)c1ccco1` the Potency was active: 10 µM. In the case of `Oc1[nH]c2ccc(Br)cc2c1N=NC(=S)NCC1CCCO1` (stereo not given), the Potency is reported as inconclusive [inhibitor, full curve, poor fit]. In the case of `COc1ccccc1N1C(=O)c2ccc(C(=O)Nc3ccc(F)cc3)cc2C1=O`, the Potency is reported as active: 15.8 µM. In the case of `COc1ccccc1NC(=O)Nc1cc(NC(=O)Nc2ccccc2OC)c(C)nc1C`, the Potency is reported as inconclusive [inhibitor, single point]. For `Cc1csc2c(N3CCN(C(=S)Nc4ccc(F)cc4F)CC3)ncnc12`, the Potency was inconclusive [inhibitor, single point]. With `COc1cc(SC)ccc1C(=O)Nc1cc(C)ccn1` the Potency was inconclusive [inhibitor, full curve]. For `CC(C)C(=O)Nc1cccc(NC(=O)c2cc3ccccc3o2)c1`, the “activity, negative = inhibition” value was inactive: -4.36%. For `CN(C)C(=O)c1cc2cc(Br)ccc2s1`, the Potency was inconclusive [activator, partial curve]. In the case of `CN(C)c1ccc(-c2cc(Nc3ccc(F)cc3)ncn2)cc1`, the Potency is reported as inconclusive [inhibitor, single point]. With `O=C(NNC(=S)NCC1CCCO1)c1cc(Br)ccc1Cl` (stereo not given) the Potency was active: 20 µM. With `CCOC(=O)CSc1nc(N)c(C(=O)Nc2ccc(N(C)C)cc2)s1` the Potency was inconclusive [inhibitor, single point]. For `O=C(Nc1nnc(-c2ccco2)o1)c1ccc([N+](=O)[O-])s1`, the Potency was active: 2.82 µM. In the case of `S=C(NCc1ccccc1)Nc1cccc(Cl)c1`, the Potency is reported as active: 12.6 µM. For `O=C(NNc1nc2ccc(F)cc2s1)c1cccc(F)c1`, the Potency was inconclusive [inhibitor, partial curve]. With `O=C(Cc1ccccc1)NC(=S)Nc1ccc(N2CCCCC2)cc1` the Potency was active: 3.55 µM. With `O=c1c(Cc2ccc(F)cc2)c(O)ccn1C1CC1` the Potency was inconclusive [inhibitor, single point]. In the case of `CCCC(=O)Nc1c(-c2cccc(C)c2)c(=O)c2ccccc2n1C`, the “activity, negative = inhibition” value is reported as inactive: -10.3%. With `NCCCC[C@H]1NC(=O)[C@H](CCC(=O)O)NC(=O)c2cc([N+](=O)[O-])cc(I)c2OCC[C@@H](C(N)=O)NC1=O` the “activity, negative = inhibition” value was inactive: -1.66%. With `COc1ccccc1-c1nnc(NC(=O)Cc2ccccc2)o1` the Potency was active: 3.16 µM. With `CN(C(=S)NC(=O)/C=C/c1ccc(F)cc1)C1CCCCC1` the Potency was active: 2.51 µM. In the case of `Cc1ccc(C(=O)CSc2nc(C)cc(C)c2C(N)=O)cc1`, the Potency is reported as inconclusive [activator, partial curve]. In the case of `COc1ccc(CCNc2ncnc3sccc23)cc1OC`, the Potency is reported as active: 0.631 µM. For `Cc1cc(SCC(=O)NC(=O)NCc2ccco2)nc2c(C)cccc12`, the Potency was inconclusive [inhibitor, partial curve, poor fit]. With `O=C(NCc1ccccc1Cl)c1cccc(OC2CCN(C(=O)C3CC3)CC2)c1` the “activity, negative = inhibition” value was inactive: -16.8%. With `Cc1cc(C)nc(N/N=C/c2ccccc2OCc2ccc([N+](=O)[O-])cc2)n1` the Potency was inconclusive [inhibitor, single point]. In the case of `O=C(/C=C/c1ccco1)NCc1ccc2c(c1)OCO2`, the “activity, negative = inhibition” value is reported as inactive: -9.76%. In the case of `CC(C)c1ccc(/C=C/C(=O)N2CCc3ccccc3C2)cc1`, the Potency is reported as inconclusive [inhibitor, single point]. In the case of `CC(C)(C)C(=O)NC(=S)Nc1ccccn1`, the Potency is reported as inconclusive [inhibitor, single point]. With `Oc1c(Br)cc(Br)cc1C=Nc1ccc2c(c1)OCO2` the Potency was inconclusive [inhibitor, single point]. For `C/C(=N/Nc1nc(-c2ccccc2)cc(-c2ccc(F)cc2)n1)c1cccc(N)c1`, the Potency was active: 14.1 µM. In the case of `CCOC(=O)C1(CCc2ccccc2)CCN(C(=O)[C@@H]2C[C@@H](C)NC(=S)N2)CC1`, the Potency is reported as inconclusive [activator, partial curve]. With `N=c1c2c(ncn1CCCO)Oc1ccc3ccccc3c1C2c1ccccc1` (stereo not given) the “activity, negative = inhibition” value was inactive: 0.491%. For `Cc1ccc(CCC(=O)Nc2ncc(Cc3cc(Cl)ccc3Cl)s2)o1`, the Potency was inconclusive [inhibitor, single point]. With `COc1nc(OC)nc(N2CCC(C(=O)NCc3ccco3)CC2)n1` the “activity, negative = inhibition” value was inactive: 4.9%. For `CNC(=S)NNC(=O)COc1cccc(C)c1C`, the Potency was active: 7.08 µM. For `COc1ccc(N=N/C(=C\O)C(=O)c2cccs2)cc1`, the Potency was inconclusive [inhibitor, single point]. With `O=C(Nc1cccc(Cl)c1)N(Cc1nc2ccccc2c(=O)[nH]1)C1CCCC1` the Potency was inconclusive [inhibitor, single point]. In the case of `Cc1ccsc1-c1n[nH]c(=S)n1C1CCCCC1`, the Potency is reported as inconclusive [inhibitor, partial curve, poor fit]. For `O=C(NC1CCCCCC1)c1ccc2c(=O)n3c(nc2c1)CCCCC3`, the “activity, negative = inhibition” value was inactive: -1.24%. For `CCOc1ccc(N2C(=O)CC(Sc3ccccc3C(=O)O)C2=O)c([N+](=O)[O-])c1` (stereo not given), the Potency was inconclusive [inhibitor, single point]. With `CCCC(=O)NC(=S)Nc1ccc(S(=O)(=O)Nc2ccc(OCC)cc2)cc1` the Potency was inconclusive [inhibitor, single point]. In the case of `COc1ccc(CNC(=O)c2c(C)nc3ccccn23)cc1`, the Potency is reported as inconclusive [inhibitor, single point]. In the case of `CC(=O)Nc1c(Cl)cc([N+](=O)[O-])c2ccccc12`, the “activity, negative = inhibition” value is reported as inactive: 1.86%. With `COCc1nnc(NC(=O)c2sc3ccccc3c2Cl)s1` the Potency was inconclusive [inhibitor, single point]. With `CCn1c(CSCc2c(Cl)cccc2Cl)n[nH]c1=S` the Potency was inconclusive [inhibitor, full curve]. In the case of `Cc1cc(C)cc(N2C(N)=NC(N)=NC2c2cccc(Cl)c2)c1` (stereo not given), the Potency is reported as inconclusive [inhibitor, single point].
